# Assay results published in paper PMC6212790.
# The other results are listed elsewhere or left out. At the low end of the ranking, values are background and their order means little.
# Molecular target: T1, GST-Rok (full length) (UniProt O34857)
# T1 sequence: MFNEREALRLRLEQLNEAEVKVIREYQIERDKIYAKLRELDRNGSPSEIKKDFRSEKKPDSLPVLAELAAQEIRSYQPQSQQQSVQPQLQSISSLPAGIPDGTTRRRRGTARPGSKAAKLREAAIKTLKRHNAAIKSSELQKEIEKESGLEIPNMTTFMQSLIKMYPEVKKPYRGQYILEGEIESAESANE
# Assay: protein binding microarray;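 also: rank score from −0.5 (least bound) to 0.5 (best bound)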
# Settings: Rok is a gene silencer of Bacillus subtilis; high values mean tight binding; most listed sequences are background and not binding sites; double strand, one strand shown
row,Sequence,binding signal
1,AGGTCGAG,-0.00394 E-score
2,ACTAAATC,0.343 E-score
3,GATTCCAC,-0.154 E-score
4,CGTAGCAA,-0.123 E-score
5,CCGACTCA,-0.0679 E-score
6,TATGCGAA,0.0917 E-score
7,CACTGCCC,-0.291 E-score
8,AGTTTAAC,0.138 E-score
9,GCCAGGGC,-0.315 E-score
10,GGGGGTCA,-0.442 E-score
11,GTCAGTCA,-0.0623 E-score
12,CGGGGTTC,-0.316 E-score
13,CCAGCGCA,0.0566 E-score
14,CCGTGTCA,-0.221 E-score
15,CAGTTATG,0.188 E-score
16,CCATCCGC,-0.114 E-score
17,GCACCCAC,-0.0904 E-score
18,CATATCCA,0.139 E-score
19,AGATTTTG,0.0323 E-score
20,CAAAGGAA,-0.261 E-score
21,ATTGCCTA,0.0706 E-score
22,CAACCTTA,0.0684 E-score
23,ACAGCTAC,0.143 E-score
24,CATGCCGC,-0.239 E-score
25,AATCTGGC,-0.308 E-score

row,Sequence,binding signal
1,TCAACAGA,-0.0866 E-score
2,AGGAGCCA,-0.339 E-score
3,AACTGGTG,-0.0126 E-score
4,AACTCGTC,0.028 E-score
5,GCCGTGGA,-0.109 E-score
6,AGGACTGA,0.0533 E-score
7,GATCGCCC,-0.065 E-score
8,CGGAGCTC,-0.192 E-score
9,TCGACCAA,0.0596 E-score
10,ATGTAGAA,0.423 E-score
11,GGATCGCA,-0.241 E-score
12,ACTCGTAT,0.0124 E-score
13,GCGCTAAC,0.0627 E-score
14,GACTACTC,0.132 E-score
15,AAAATACC,0.373 E-score
16,CGATGCAA,0.0679 E-score
17,ATCTTCCC,-0.0921 E-score
18,TCATACAA,0.129 E-score
19,CCGTTGAC,-0.306 E-score
20,GTATGCTA,0.201 E-score
21,CGGGCAAC,-0.298 E-score
22,CCCCTCGC,-0.314 E-score
23,GGGTCTGA,-0.19 E-score
24,CCGAATCA,-0.0978 E-score
25,GAACTGCC,-0.139 E-score

row,Sequence,binding signal
1,GCATATAA,0.127 E-score
2,AGGCTTAC,-0.174 E-score
3,ATTTGACG,0.125 E-score
4,ACTCGTAA,0.135 E-score
5,ATGATTGG,-0.195 E-score
6,CGCCCCTA,-0.218 E-score
7,AGCAACAT,0.0691 E-score
8,GCGGTGTA,-0.0709 E-score
9,ACGCGATA,0.157 E-score
10,CTGGGAAA,-0.107 E-score
11,CACGCAGA,-0.0133 E-score
12,CATTCCAG,-0.244 E-score
13,AACAAGCC,-0.118 E-score
14,CGGGCCAG,-0.277 E-score
15,CGCGCCGC,-0.298 E-score
16,AGGGAGTG,-0.279 E-score
17,CCAATTAA,-0.0711 E-score
18,ATTGCTAC,0.247 E-score
19,AATGGTTA,0.128 E-score
20,GCTATTAA,0.189 E-score
21,CATAAAAG,0.102 E-score
22,AGTTTTAG,0.256 E-score
23,GATCGCGA,0.177 E-score
24,CCAACAGA,-0.0602 E-score
25,CTCACCTC,-0.154 E-score

row,Sequence,binding signal
1,CCTGTGAA,-0.197 E-score
2,CCTGTGGC,-0.315 E-score
3,CGTGTCCA,-0.186 E-score
4,AACACCAT,0.0536 E-score
5,ACGACCTC,-0.11 E-score
6,ACTCATTC,0.043 E-score
7,TCATAACA,0.0898 E-score
8,GAATCATC,-0.114 E-score
9,GGAAAAGA,-0.0377 E-score
10,CAATGGCC,-0.0754 E-score
11,AGAAACGG,0.0479 E-score
12,GCTCTTCA,-0.032 E-score
13,CTAAAGAG,0.00604 E-score
14,ATTTGCGC,0.0911 E-score
15,GGTGGATA,-0.012 E-score
16,ATTGGGAA,-0.0874 E-score
17,CTGCACAA,0.159 E-score
18,CTGCGACA,-0.167 E-score
19,TGAACGCA,-0.112 E-score
20,AGGACCGG,-0.183 E-score
21,GCGACAAC,-0.145 E-score
22,TCCGCGAA,0.0264 E-score
23,GCCTATCA,-0.0333 E-score
24,ACGGAGCA,-0.0635 E-score
25,CCGGGGGC,-0.425 E-score

row,Sequence,binding signal
1,CGAACGAG,0.00802 E-score
2,ATTCTACC,0.442 E-score
3,CAAGATAG,0.221 E-score
4,AACATGGT,0.12 E-score
5,GGACTTAC,0.0153 E-score
6,AGGGTCGA,-0.177 E-score
7,AAGGTACT,0.183 E-score
8,ATTTGGTG,0.0849 E-score
9,ACTGAAAG,0.0652 E-score
10,ACCGCAGT,0.0335 E-score
11,AATCAGAG,-0.104 E-score
12,AGATTGAG,0.172 E-score
13,CGAGCTGC,-0.23 E-score
14,CTCATCAA,0.00689 E-score
15,GCTCACCA,-0.175 E-score
16,AGTGTACG,-0.00494 E-score
17,AAAGTTAT,0.271 E-score
18,AATAAACC,-0.00939 E-score
19,GCGACCGC,-0.258 E-score
20,GCTGTTGA,0.00859 E-score
21,AAGTTGCC,-0.0279 E-score
22,AGTCACAT,0.195 E-score
23,AGATATCA,0.127 E-score
24,CCCCGGCG,-0.361 E-score
25,TACTATCA,0.35 E-score

row,Sequence,binding signal
1,GCCCTTAC,-0.0744 E-score
2,AGGCTGAC,-0.124 E-score
3,CCCGTCAC,-0.261 E-score
4,CACCGGTA,0.056 E-score
5,ACGTCGTG,0.0249 E-score
6,GAACAAAC,0.0908 E-score
7,CATCCATG,0.00106 E-score
8,AACTGGGC,-0.224 E-score
9,AAGAACCC,-0.203 E-score
10,GACCTTCC,-0.391 E-score
11,CACTAGCG,-0.204 E-score
12,ACTCGGGC,-0.244 E-score
13,ATAAGGAT,0.109 E-score
14,CCTTCATC,-0.103 E-score
15,CGAGAAAG,-0.157 E-score
16,CATGATGC,0.112 E-score
17,GTAATCAC,-0.106 E-score
18,GTCTTTGA,-0.162 E-score
19,CACTCTTC,-0.167 E-score
20,GTGGGCAA,-0.12 E-score
21,ACCCGACT,-0.116 E-score
22,TGCAATAA,0.0325 E-score
23,ACGGAACT,0.182 E-score
24,CGCTATCC,0.0105 E-score
25,CAACAGAA,-0.146 E-score

row,Sequence,binding signal
1,ACATCTCA,0.0868 E-score
2,CACAATAG,0.312 E-score
3,CACGCCCC,-0.34 E-score
4,CAGAGTGG,-0.106 E-score
5,CGGACACG,-0.142 E-score
6,GTAACAGA,0.12 E-score
7,CTACATAA,0.267 E-score
8,AAGTAGCT,0.264 E-score
9,CATGCACC,-0.113 E-score
10,TATTCGCA,0.195 E-score
11,AGTGACAT,0.101 E-score
12,TACTAAAA,0.434 E-score
13,AGCCCCGC,-0.338 E-score
14,CATCTTCA,0.0379 E-score
15,AGCGAGAA,0.0389 E-score
16,AGCTGTGC,-0.176 E-score
17,CTGGTGAC,-0.165 E-score
18,CCATCGAA,-0.0481 E-score
19,ACTTTAAG,-0.108 E-score
20,ACTCTTGC,0.112 E-score
21,CAGGAAAG,-0.131 E-score
22,ATTGAGTA,0.241 E-score
